This is one part of the list.
Test system: PfHDP1 homeodomain (GST-tagged)
Experiment: gcPBM binding intensity (ln(normalized median fluorescence intensity)); higher = stronger DNA binding
Summary of the method: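 The binding buffer was 1× PBS containing 1% milk, 0.2 mg/ml BSA, 0.5% salmon testes DNA and 0.03% Triton X-100. In it, GST-tagged P. falciparum DNA-binding domains expressed in E. coli were applied for 1 h to an Agilent 4 × 180k array of primer-extended double-stranded 36-bp intergenic genomic probes plus negative controls. Binding intensity, read with Alexa488 anti-GST antibody and a 488 nm scan, is the highest Masliner-normalised natural-log median intensity across replicate spots of either probe orientation.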

Sequence | gcPBM binding intensity (ln)
AATTTATAAGAATAAAGTACTAAAGATACAACTTTA [XGTACX_site7153] | 6
TGTTATTATAACATTTTTTTCAAAATAGCTTTAGAA [CACACA_negctrl_site266] | 6.12
ATTAAAGGAAGCAAAACATGCAACAGCAATATTGCA [TGCATGCA_site452] | 6.57
AATTATATAACAAATTGTACGAATGAAAATATTATT [XGTACX_site4237] | 6.79
TAAAAATAGGAATACGCACACGATGATTAATTTATA [CACACA_site1835] | 6.41
ATTTTTTTTTTTTTTTTGGGGGGGTATACTTTTAAA [CACACA_negctrl_site1020] | 10.2
TTCCTTTTTTTTTATTGTACAAAAATATCAAAAAGG [XGTACX_site8505] | 6.35
TTTTTAATTTTATATACACACATAAAATATATGAAG [CACACA_site3145] | 6.64
TATAATGAGGATGATAGTACGTATTAGTATAAAAAA [XGTACX_site6623] | 6.75
TTTATATATATTTATACACACAAACATAATACTACT [CACACA_site5161] | 6.86
TATATACACATATATACACACACATATATATATATA [CACACA_site9127] | 9.23
ATATATCTACTGTGTTGTACTGTTAATATTTGAATA [XGTACX_site1931] | 6.58
ATATAAGTGTATCTAACACACAAATATGTAAAAATG [CACACA_site7006] | 6.39
ATATTTTTTGCTATTACACACAAGGGATTATTATTT [CACACA_site7776] | 7.18
AAGAAAAAAAATATATATGTATATATTATTTTAACA [TGCATGCA_negctrl_site534] | 6.15
ATGTTAATAACTTGTGGTACTGTTATAATTTAGTAA [XGTACX_site2114] | 6.14
TAATAATAGTCTAATACATGCATCGATAACGGAACT [TGCATGCA_site98] | 6.9
ATATAAATTATTTACACACAAACATTTATACTTTTA [CACACA_site3448] | 6.77
TTTTGTTACGGCAAGGAAGTTAAGCATAAATGAATG [GTGCAC_negctrl_site173] | 6.82
CAGGCGTGAAATATACGTACACACATTATTTATATT [XGTACX_site5337] | 6.47
AAAAAAAAAAAATATACACACACATATATATATATA [CACACA_site9123] | 9.17
AACAACAATTTCGTCATACACACATTCAGAATATAT [CACACA_site2371] | 6.72

Sequence | gcPBM binding intensity (ln)
TATTAAAAAAATGTATGTACATATATAAATTTTTTT [XGTACX_site1094] | 6.15
AATGATCATAAATACACACACACAAAAAAAAAAAAA [CACACA_site6072] | 6.39
AAAGTAAAAGAAAGCACACACACATGTATATATGTA [CACACA_site3857] | 6.45
GATGGATTTATTTAAAGTACATATTTAAAAAACTGT [XGTACX_site7567] | 6.18
TTTCTCCCATTTTTTAGTACACAAAATATATATGTA [XGTACX_site7218] | 6.9
TTTTTATTTTTAAAGGCACACACATTTTTATTTTTA [CACACA_site8624] | 6.39
AAATGAAATTTGTATACACACAAATATATTTATATA [CACACA_site6525] | 6.36
TATTTGTGCCAAAAATGAAAAAGTTTGTATAAAACC [CACACA_negctrl_site1406] | 6.52
AATAAATAAATAATATAATGAAATTATAAAATGTGG [TGCATGCA_negctrl_site385] | 6.31
AAAATTACTATATGAACACACATGATTAGATATATG [CACACA_site3083] | 6.31
TATATATATATATACACACACACCCTAAAAATATAT [CACACA_site1611] | 9.41
TGAAAGAATTAATTTTGTACATATAAAAATTTTATT [XGTACX_site8500] | 6.16
AAAAACTTTTCAAGTAGTACCATATCTACAATAGTA [XGTACX_site8927] | 5.86
AAACAAAAGATATATACACACTAAACATAAAAAAAA [CACACA_site6161] | 6.6
CCTTTATTAAATAAATGTACATATTTTTGTGTTCTT [XGTACX_site2052] | 6.73
GTTGGTAGGATGTATGGTACACGTAGTATTTTTCTT [XGTACX_site2] | 6.93
AATAAAAATAAAATTGTATATTTTAAATGAAAATAA [CACACA_negctrl_site898] | 6.16
AAACTCTCTTATATTAAACACACATATATATATGTA [CACACA_site8865] | 6.49
CCGTATATTTTATATAGTACTCATCATATATTTTTA [XGTACX_site5560] | 6.4
CAAATTGGGAAATTTTGTACATATAATAAGGATACC [XGTACX_site7728] | 6.76
GATAATGAATGATGCACACTAAAAATATTCTACAAC [CACACA_site3622] | 8.94
TTTTTAATTTTTTTTAAACACACACCGTACATTCAA [CACACA_site7925] | 6.99

Reference: the supplement of paper PMC11417369
